The values below come from paper PMC6212790.

Some of the results follow. At the low end of the ranking, values are background and their order means little.

This assay addresses T1, GST-Rok-C97-191 (UniProt O34857).
T1 sequence: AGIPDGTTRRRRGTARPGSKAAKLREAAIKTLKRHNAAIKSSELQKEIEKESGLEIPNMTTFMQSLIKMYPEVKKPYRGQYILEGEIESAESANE
The experiment in a line: protein binding microarray.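 Further: rank score from −0.5 (least bound) to 0.5 (best bound).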 As to conditions: Rok is a gene silencer of Bacillus subtilis; high values mean tight binding; most listed sequences are background and not binding sites; double strand, one strand shown.
As for CAAAATAG, the binding signal turned out to be 0.333 E-score.
For ATTCGCTA, the binding signal stood at 0.173 E-score.
Under GAAGTGAA stands -0.203 E-score; under ATGTTAAG, 0.104 E-score.
With AGGTCACC the figure was -0.253 E-score; with AATATAAC, 0.205 E-score.
Under ATTACAAC stands 0.206 E-score; under GCCCCTGA, -0.293 E-score.
The sequence ATTAATCC gave a binding signal of 0.223 E-score.
GGGCTCTA came in with a binding signal of 0.0653 E-score.
Consider ATCCCGAA, for which the binding signal came to 0.0949 E-score.
With CGTGTTAC the figure was 0.0253 E-score; with TATCTTAA, 0.145 E-score.
Regarding CTTTAGCC, the binding signal came to 0.0163 E-score.
Consider AAGTTGGT, for which the binding signal was -0.0226 E-score.
CGCCCACA: the binding signal was -0.101 E-score.
As for CCCTGAGC, the binding signal was -0.358 E-score.
On to CATAGGCA, for which the binding signal is 0.0753 E-score.
For the sequence CCGTCCAA, the binding signal was -0.13 E-score.
With CAGAAGAG the figure was -0.164 E-score; with CAGGTCGG, -0.368 E-score.
With CATAGATA the figure was 0.297 E-score; with AGACCCAG, -0.168 E-score; with AAATCCTG, -0.0187 E-score.
CAGCTTAG: the binding signal is -0.171 E-score.
Sequence AACGCTGT came in with a binding signal of -0.0929 E-score.
With CACATTGC, the binding signal is -0.0219 E-score.
Sequence AAGAAAAT displayed a binding signal of 0.188 E-score.
For AACCGGGC, the binding signal is -0.238 E-score.
CAAACAAC showed a binding signal of 0.00245 E-score.
Under CATAGGCC stands -0.293 E-score; under CACATGCA, 0.206 E-score; under GAGCCCCC, -0.339 E-score.
With CGGTACAA the figure was 0.112 E-score; with CCGTAACG, -0.144 E-score; with ATTGCCCA, -0.00433 E-score.
On to ATGGTTGG, for which the binding signal was -0.146 E-score.
Consider CAAAGATA, for which the binding signal came to 0.147 E-score.
Under CGCCGAGC stands -0.176 E-score.
AATTGACC showed a binding signal of 0.103 E-score.
GTTGTCAA displayed a binding signal of -0.0894 E-score.
With ATGCTTAA the figure was -0.0221 E-score.
Under ATGATATA stands 0.386 E-score; under CCGTGTCG, -0.314 E-score.
Under CTTCTTGA stands -0.0372 E-score; under GCTAGCCA, 0.153 E-score.
For the sequence ATGTTGGA, the binding signal was -0.0892 E-score.
In turn, CTCTCAAC yielded a binding signal of 0.0668 E-score.
With ACGTATGG the figure was 0.00685 E-score; with ACGAAAAC, -0.0839 E-score.
As to GCACGAAA, the binding signal turned out to be 0.0521 E-score.
Under TCCCCGCA stands -0.314 E-score; under TAAATCTA, 0.364 E-score; under TCCTCCGA, -0.249 E-score.
AAACCCCC had a binding signal of -0.222 E-score.
Under AGGAGTGG stands -0.0863 E-score; under GGCTCTAC, -0.0584 E-score.
The sequence AAGTATGC had a binding signal of 0.161 E-score.
Under AGGCGCCA stands -0.0561 E-score.
With AATTAAAC the figure was 0.0632 E-score; with TAAATTAA, 0.267 E-score; with ACCCCAGC, -0.0894 E-score.
As to ACGGTAGT, the binding signal was 0.408 E-score.
Under CTGCTACA stands 0.16 E-score; under GACTGGAA, 0.0803 E-score.
For GAAGCTCA, the binding signal worked out at 0.0286 E-score.
Under GCCATTCC stands -0.156 E-score; under GAAAGAAA, 0.0596 E-score.
Under GCCAAAGA stands -0.207 E-score; under TGCTAGCA, 0.027 E-score; under CATACCTC, -0.0434 E-score.
Sequence AGCGGACG gave a binding signal of 0.000189 E-score.
With TAACAAGA the figure was -0.0405 E-score; with CGGAATCA, -0.045 E-score; with TATTGTAA, 0.23 E-score.
With CACAAAAA the figure was 0.102 E-score; with AAAGTTTG, -0.0186 E-score.
Under ACCGTGCC stands -0.132 E-score.
ACCGTGCG returned a binding signal of -0.00449 E-score.
In turn, AACGGTCT displayed a binding signal of -0.0159 E-score.
Under CCTGGTGA stands -0.248 E-score; under AGTTACAC, 0.178 E-score; under CAGACAAC, -0.0635 E-score.
Consider AATGAGAC, for which the binding signal was -0.0863 E-score.
ACGGCCTA gave a binding signal of -0.212 E-score.
With GACTCAAC the figure was -0.156 E-score.
Sequence CGGGTCAC returned a binding signal of -0.145 E-score.
The sequence ACAGTAAC came in with a binding signal of 0.189 E-score.
Take CCCCTTCG: the binding signal was -0.38 E-score.
For the sequence AGGGCGTG, the binding signal was -0.216 E-score.
In turn, CGCCTCAC gave a binding signal of -0.178 E-score.
With ACTATGTG the figure was 0.0615 E-score.
With ACACTCTC, the binding signal is -0.0287 E-score.
Under CAAGTAGG stands 0.135 E-score; under CTCGCAGA, -0.119 E-score; under GAAACTGC, -0.0234 E-score.
For GATCTGGC, the binding signal was -0.0869 E-score.
Under CAGTACTC stands 0.00214 E-score; under AGCTCGAG, 0.0624 E-score; under TAGGTGAA, 0.0618 E-score.
Sequence ATGGGTTC displayed a binding signal of 0.00727 E-score.
Under ATACCGAC stands -0.0441 E-score.
Under TCGAGCAA stands -0.0104 E-score; under ACGATGGA, 0.117 E-score.
With AGGAATGG the figure was -0.0993 E-score; with CCTTGACA, -0.183 E-score.
As to GTACATAC, the binding signal was determined as 0.172 E-score.
Under TGTGAACA stands -0.075 E-score.
With CACCCTTA the figure was -0.145 E-score.
ATGGCCCC showed a binding signal of -0.211 E-score.
